Measurements from PubChem BioAssay AID686978 (National Center for Advancing Translational Sciences (NCATS), 2013).
Several values for one entry are separate records, joined by “and”; a condition that tells them apart may be missing. Equal values may be shown once. Among all 420,000 compounds or so, about 64,000 (15%) were called active. This list was built around the results that the source calls inconclusive (neither active nor inactive); the mix of calls is not that of the screen. Calls follow the shape of the dose curve; as a rule, active = well fitted inhibition curve with a large enough effect; inconclusive = small, poorly fitted or top-dose-only effect; inactive = flat fitted curve, though single readings scatter. Potencies of inconclusive entries are left out as doubtful fits.

Assay: qHTS for Inhibitors of human tyrosyl-DNA phosphodiesterase 1 (TDP1): qHTS in cells in absence of CPT; also: nearly all actives have a fitted effect of over 55% in size
Conditions: DT40 Tdp1-/- hTDP1 cells, no CPT, ATP luminescence, 48 h; activity change, negative = growth inhibition: at 46.2 µM (top of the series) unless noted
Outline: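 A cellular qHTS used chicken DT40 cells lacking endogenous Tdp1 but carrying stably transfected human TDP1. Compounds were applied without camptothecin, and cell growth kinetics were judged by ATP-dependent luminescence after ≥48 hr.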
% is scaled to controls: 0 for no effect and ±100 for the full control effect; potency is read from the fitted curve at half-maximal effect; tags tell the direction and shape of the fitted curve.

Row | SMILES | Potency | activity change, negative = growth inhibition
1 | CC1=C(c2ccc(C)cc2)S(=O)(=O)NC1=NCc1cccc(F)c1 | inconclusive [inhibitor, partial curve] | –
2 | COCCCNC(=O)c1ccc([N+](=O)[O-])cc1 | inactive | –
3 | Cc1ccc(C23CC4CC(CC(CC(=O)NC(C)(C)CO)(C4)C2)C3)cc1 | active: 14.6 µM | –
4 | CC(C)CNC(=O)C1(C)CCCN1C(=O)c1ccc2c(c1)CCO2 (stereo not given) | inactive | –
5 | O=C(Nc1ccccc1)N1CCN(c2ccc(F)cc2)CC1 | inconclusive [inhibitor, partial curve] | –
6 | CC1CCc2c(sc3nc(CSc4nnnn4C)[nH]c(=O)c23)C1 (stereo not given) | inactive | –
7 | CSc1ccc(C(=O)C2CCCN(S(=O)(=O)N(C)C)C2)cc1 (stereo not given) | inconclusive [inhibitor, partial curve] | –
8 | COc1ccc(C)cc1N(C(=O)c1ccccc1)c1nc2ccccc2s1 | inconclusive [inhibitor, single point] | –
9 | C(#CSCc1ccccc1)SCc1ccccc1 | inactive | –
10 | COc1ccccc1-c1cc(C(=O)N2CCCc3ccccc32)no1 | inconclusive [inhibitor, single point] | –
11 | COc1ccc(NC(=O)C2(C)CCN2CCOc2ccccc2)cc1OC (stereo not given) | inconclusive [inhibitor, single point] | –
12 | CC(C)C(C(=O)NCC1CCCO1)N(CC1CCCO1)C(=O)CNS(=O)(=O)c1ccccc1 (stereo not given) | inactive | –
13 | O=C(Nc1cc2c3c(c1)CC(=O)N3CCC2)c1ccc(Cl)cc1 | inconclusive [inhibitor, single point] | –
14 | COc1cc(/C=C(\C#N)c2ccccn2)cc(OC)c1O | inconclusive [inhibitor, partial curve, poor fit] | –
15 | CN1OC[C@@H]2CN(C(=O)C(C)(C)C)[C@H](c3cccc(Oc4ccccc4)c3)C[C@@H]21 | inconclusive [inhibitor, single point] | –
16 | Cc1cccc(CN2CCN(CC(=O)NCCc3ccc(Cl)cc3)C2=O)c1 | inconclusive [inhibitor, single point] | –
17 | Cn1ccc2c(-c3cncc4ccccc34)cc3c(c21)C1CCC3O1 (stereo not given) | inconclusive [inhibitor, single point] | –
18 | CC(=O)c1cccc(NC(=O)C2Cc3c(-c4cccc(F)c4)ccnc3O2)c1 (stereo not given) | inconclusive [inhibitor, partial curve, poor fit] | –
19 | COc1ccc(-c2nc3cnc(N4CCNCC4)nc3n(Cc3cccc(OC)c3)c2=O)cc1 | active: 4.61 µM | –
20 | Cc1cc(C)c(NC(=O)c2oc3c(c2C)-c2[nH]ncc2CC3)c(C)c1 | active: 20.6 µM | –
21 | O=C(CN1CCN(c2ccc(F)cc2)CC1)Nc1ccc(F)c(F)c1 | inconclusive [inhibitor, single point] | –
22 | COc1ccc(NC(=O)c2cc(-c3ccc(F)cc3OC(C)C)n[nH]2)c(OC)c1 | inconclusive [inhibitor, single point] | –
23 | Cc1ccc(S(=O)(=O)Nc2cccc(C(=O)N3CCOCC3)c2)c(C)c1NS(C)(=O)=O | inactive | –
24 | CN(C)C=NC1=NN(c2cccc(C(F)(F)F)c2)CC1 | inactive | –

Row | SMILES | Potency | activity change, negative = growth inhibition
25 | CCOC(=O)c1ccc(NC(=O)CNS(=O)(=O)c2ccccc2)cc1 | inconclusive [inhibitor, single point] | –
26 | CNS(=O)(=O)c1ccc(N=Cc2c(C)[nH]n(-c3ccc(C)cc3C)c2=O)cc1 | inactive | –
27 | N=c1c2c3c(sc2nc2n1CCCCC2)CCCC3 | inconclusive [inhibitor, single point] | –
28 | O=C1c2ccccc2C(=O)N1CCc1csc(-c2ccc(F)cc2)n1 | inactive | –
29 | CCOC(=O)C(NC(=O)CC)(Nc1cc(C)on1)C(F)(F)F (stereo not given) | inactive | –
30 | O=C(c1ccco1)N1CCN(Cc2cccc3ccccc23)CC1 | inconclusive [inhibitor, partial curve, poor fit] | –
31 | COc1ccc(-c2c(C(F)(F)F)[nH]n3c(=O)cc(-c4ccccc4)nc23)cc1 | inconclusive [inhibitor, single point] | –
32 | C=CCN(c1ccccc1)S(=O)(=O)c1cccc2cccnc12 | inconclusive [inhibitor, partial curve, poor fit] | –
33 | CCCCOc1ccc(C(=O)NCc2cn3cccc(C)c3n2)cc1 | inconclusive [inhibitor, single point] | –
34 | CCCNCc1cc(OC)c(OCc2ccccc2)cc1Br | inconclusive [inhibitor, single point] | –
35 | CC(C(=O)c1ccccc1)[n+]1cccc(Cl)c1 (stereo not given) | inconclusive [inhibitor, single point] | –
36 | O=C1N2CCCc3cccc(c32)C12Nc1ccccc1S2 (stereo not given) | inactive | –
37 | Cc1cccc(-c2nc3scc(CCNS(=O)(=O)c4ccc(F)c(C(F)(F)F)c4)n3n2)c1 | inconclusive [inhibitor, single point] | –
38 | CC(=O)OC1CCC2(C)C(=CC=C3C2CCC2(C)C3CCC2C(C)/C=C/C(C)C(C)C)C1(C)C (stereo not given) | inactive | –
39 | COc1ccc(Cl)cc1NC(=O)CSc1nc2c(oc3ccccc32)c(=O)n1Cc1ccco1 | inconclusive [inhibitor, single point] | –
40 | O=C1CN(C(=O)COc2c(Cl)cccc2Cl)c2ccccc2N1 | inactive | –
41 | CC(C)N1CCC(=NNc2ccc([N+](=O)[O-])cc2S(=O)(=O)N2CCOCC2)CC1 | inconclusive [inhibitor, single point] | –
42 | Fc1ccccc1N1CCN(c2ncnc3onc(-c4ccc(Cl)cc4)c23)CC1 | active: 20.6 µM | –
43 | S=C(Nc1ccc(Cl)cc1Cl)NC1CCN(Cc2ccccc2)CC1 | active: 16.4 µM | –
44 | Cn1cnc([N+](=O)[O-])c1Sc1ccc(C(C)(C)C)cc1 | inconclusive [inhibitor, single point] | –
45 | Nc1cc(=O)[nH]c(SCC(=O)Nc2cc(S(=O)(=O)N3CCCCCC3)ccc2Cl)n1 | inconclusive [inhibitor, partial curve] | –
46 | O=C(NCc1ccc(Cl)cc1)C1CCC(CNS(=O)(=O)c2ccccc2)CC1 (stereo not given) | – | inconclusive: -31.5% [inhibitor] and inconclusive: -33% [inhibitor]
47 | O=C(COC(=O)c1ccc(Cl)nc1)Nc1ccc2c(c1)OCCO2 | inactive | –
48 | Cc1nnc(SCC(=O)NC(=O)NC(C)(C)C)n1N | inconclusive [inhibitor, single point] | –

Row | SMILES | Potency | activity change, negative = growth inhibition
49 | Cc1cc(/C=N/NC(=O)c2cccs2)c(C)n1-c1ccccc1 | active: 13 µM | –
50 | COc1cccc(C(=O)NC(Cc2ccccc2)c2ccc3c(c2)OCCCO3)c1 (stereo not given) | inconclusive [inhibitor, partial curve] | –
51 | COCCCNCC(=O)c1c(N)n(Cc2ccccc2)c(=O)n(C)c1=O | inconclusive [inhibitor, single point] | –
52 | CCN(CC)c1nn2c(=O)c(C(=O)NCCc3ccccc3C)cnc2s1 | inconclusive [inhibitor, single point] | –
53 | CCOC(=O)CC1(NC(=O)C2CCC(=O)N(CCc3ccc(OC)cc3)C2)CCCCC1 (stereo not given) | inactive | –
54 | CCOc1ccc(N(C)C(=O)C2CCN(S(=O)(=O)c3c(C)noc3/C=C/c3ccc(C)cc3)CC2)cc1 | active: 5.8 µM | –
55 | CC(=O)Nc1ccccc1N(C)S(=O)(=O)c1ccc(C)cc1 | active: 23.1 µM | –
56 | CCOc1cc2c(cc1OCC)C(CC(=O)O)N(C(=O)Nc1ccc(Br)c(C)c1)CC2 (stereo not given) | inconclusive [inhibitor, full curve] | –
57 | O=C(COc1ccccc1)Nc1cccc(-c2nc3ccccc3[nH]2)c1 | active: 23.1 µM | –
58 | Cn1c(-c2ccc3ccccc3n2)nc2cnccc21 | active: 14.6 µM | –
59 | O=C(CSc1nnc(-c2ccccn2)n1-c1ccccc1)Nc1ccc2c(c1)OCO2 | inactive | –
60 | CC(C)c1cccc(-c2csc(C(O)c3ccccc3)n2)c1 (stereo not given) | inconclusive [inhibitor, partial curve] | –
61 | CCCc1c(C)nc2scc(-c3ccc(Cl)cc3)n2c1=O | inconclusive [inhibitor, partial curve, poor fit] | –
62 | O=C(c1cc(=O)[nH]c2ccccc12)N1CC=C(c2ccccc2)CC1 | inconclusive [inhibitor, single point] | –
63 | O=C1N2CCSC2=NC1(NS(=O)(=O)c1ccccc1)C(F)(F)F (stereo not given) | inactive | –
64 | CCOC(=O)C1(Cc2cccc(Cl)c2)CCCN(C(=O)c2ccnn2C)C1 (stereo not given) | inconclusive [inhibitor, partial curve, poor fit] | –
65 | COC(=O)c1ccc(N2C(c3cc(OC)cc(OC)c3)=Cc3ccc(-c4cccnc4)cc3C2CC(=O)C2CC2)cc1 (stereo not given) | inconclusive [inhibitor, partial curve] | –
66 | Cc1ccc(S(=O)(=O)NC(=O)C2(C)CCN2C(=O)Cc2ccc(Cl)cc2Cl)cc1 (stereo not given) | inconclusive [inhibitor, single point] | –
67 | COc1cc2c(cc1OC)CN(C(=O)C(CCSC)NS(=O)(=O)c1ccc(C)cc1)CC2 (stereo not given) | inconclusive [inhibitor, single point] | –
68 | S=c1[nH]ncn1/N=C/c1cccc(Oc2ccccc2)c1 | inactive | –
69 | COC(=O)c1ccc2nc(-c3ccccc3)c(Cc3ccsc3)n2c1 | inconclusive [inhibitor, single point] | –
70 | Cc1ccc(S(=O)(=O)NCC(c2ccco2)N2CCc3ccccc32)cc1 (stereo not given) | inconclusive [inhibitor, single point] | –
